According to PubChem BioAssay AID588342 (National Center for Advancing Translational Sciences (NCATS), 2011):
Where “and” joins values, the source holds several entries; their conditions need not be identical. Identical values can stand only once. In all, about 360,000 compounds went through this assay and about 25,000 (6.9%) were called active. Inconclusive means that the source gave no clear call. Such entries were picked first, then a sample of the others. The call rests on the fitted dose curve; in most records, active means well fitted inhibition curve with a large enough effect; inconclusive means small, poorly fitted or top-dose-only effect; inactive means flat fitted curve, though single readings scatter. Where the call is inconclusive, the potency comes from a doubtful curve fit.

Target: Luciferin 4-monooxygenase (Photinus pyralis) (UniProt P08659)
UniProt P08659, sequence (P08659 whole entry, looked up): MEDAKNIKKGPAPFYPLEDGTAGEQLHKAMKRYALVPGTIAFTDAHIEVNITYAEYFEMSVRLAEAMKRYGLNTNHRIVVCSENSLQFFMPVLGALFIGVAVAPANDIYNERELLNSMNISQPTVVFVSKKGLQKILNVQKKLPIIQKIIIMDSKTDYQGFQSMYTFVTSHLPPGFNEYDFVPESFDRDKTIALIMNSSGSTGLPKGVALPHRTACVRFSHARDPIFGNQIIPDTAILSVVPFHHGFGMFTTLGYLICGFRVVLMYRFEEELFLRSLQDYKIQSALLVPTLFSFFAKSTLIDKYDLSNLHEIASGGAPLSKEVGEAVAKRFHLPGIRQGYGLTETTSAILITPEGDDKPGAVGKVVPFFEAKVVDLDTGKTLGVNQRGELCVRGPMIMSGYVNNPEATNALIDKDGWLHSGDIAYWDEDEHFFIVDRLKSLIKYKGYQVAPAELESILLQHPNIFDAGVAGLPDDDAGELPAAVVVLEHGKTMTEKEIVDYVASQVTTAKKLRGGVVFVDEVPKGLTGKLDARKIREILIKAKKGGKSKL
Assay: qHTS profiling assay for firefly luciferase inhibitor/activator using purifed enzyme and Km concentrations of substrates (counterscreen for miR-21 project); further: nearly all actives have a fitted effect of over 55% in size
Settings: purified FLuc, luminescence inhibition; series mostly up to 57.5 µM
Method in brief: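 Biochemical qHTS of compounds, final roughly 60 µM downward over six points, against 10 nM purified firefly luciferase using Km concentrations of substrates (10 uM D-luciferin, 10 uM ATP) in Tris acetate pH 7.5 buffer; luminescence output.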
Potency means the concentration at half of the fitted maximal effect; tags describe the fitted curve by direction and shape.

Row | Compound | Potency
1 | Cc1ccc(/C=N/NC(=O)C(NC(=O)c2ccccc2)c2n[nH]c(=O)c3ccccc23)cc1 (stereo not drawn) | active: 19 µM
2 | Cc1ccccc1/C=N/NC(=O)c1cccnc1 | inconclusive: 23.9 µM [inhibitor, partial curve, poor fit]
3 | CCN(CC(=O)NCc1ccc(Cl)cc1)C(=O)COc1cccc(C(F)(F)F)c1 | inactive
4 | CCCCN1C(=O)N(c2nnc(C(C)(C)C)s2)C(O)C1c1ccc(C)cc1 (stereo not drawn) | inactive
5 | Cc1ccc(NC(=O)C2CC(=O)N(c3ccc(OC(C)C)cc3)C2)cc1 (stereo not drawn) | inactive
6 | COc1ccc2[nH]cc(CCNC(=O)COc3cc(C)cc4oc(=O)cc(C)c34)c2c1 | inactive
7 | Cc1ccc(C(=O)OCC(=O)c2c[nH]c3ccccc23)cc1S(=O)(=O)N1CCCCC1 | inconclusive: 9.53 µM [inhibitor, partial curve]
8 | Cc1ccc(NCc2n[nH]c(=S)n2-c2ccccc2)cc1Cl | inconclusive: 21.3 µM [inhibitor, partial curve, poor fit]
9 | Cc1ccc[n+](-c2nc([O-])sc2/C=N/Nc2ccc([N+](=O)[O-])cc2)c1 | inconclusive: 37.9 µM [inhibitor, partial curve, poor fit]
10 | O=C(CSc1nc(-c2ccc(F)cc2)[nH]c1-c1ccc(F)cc1)Nc1ccc2c(c1)OCCO2 | inconclusive: 33.8 µM [inhibitor, partial curve, poor fit]
11 | COCCN(C(=O)c1ccccc1F)c1nnc(-c2ccc(OC)cc2)s1 | inconclusive: 19 µM [inhibitor, partial curve]
12 | COc1ccc(C2=NOC(C(=O)Nc3ccc4c(c3)OCCO4)C2)c(OC)c1 (stereo not drawn) | inconclusive: 37.9 µM [inhibitor, partial curve, poor fit]
13 | O=C(Nc1nnc(S(=O)(=O)N2CCc3ccccc32)s1)c1cccc(Cl)c1 | inactive
14 | COCCOC(=O)c1c(-c2ccccc2)c(-c2ccccc2)nn(C)c1=O | inactive
15 | CC(CN1CCN(C)CC1)OC(=O)c1cccc(Cl)c1 (stereo not drawn) | inconclusive: 23.9 µM [inhibitor, single point]
16 | Cc1cc(Br)ccc1NS(=O)(=O)c1c(C)[nH]c(=O)[nH]c1=O | inactive
17 | Cn1c(=O)n(C)c2cc(NS(=O)(=O)c3ccc(Cl)s3)ccc21 | inactive
18 | COc1ccccc1N1CCN(C(=O)c2ccc3[nH]c4c(c3c2)CC(C)CC4)CC1 (stereo not drawn) | active: 19 µM
19 | COc1ccc(NCCc2ccccn2)cc1 | inconclusive: 26.9 µM [inhibitor, single point]
20 | CCOc1ccc(CC(=O)Nc2c(C(=O)c3ccccc3)oc3ccc(OC)cc23)cc1OCC | inactive
21 | Cc1ccc(OCCCn2ccnc2)c([N+](=O)[O-])c1 | inconclusive: 33.8 µM [inhibitor, partial curve, poor fit]
22 | O=C(CN1C(=O)C(=O)N(Cc2ccccc2)C1=O)Nc1cc(Cl)cc(Cl)c1 | inconclusive: 33.8 µM [inhibitor, partial curve, poor fit]
23 | N#CC(=C1N=c2ccccc2=N1)c1c(O)[nH]c2ccccc12 | inconclusive: 3.38 µM [inhibitor, full curve]
24 | O=Cc1cn(CC(=O)N2CCCCC2)c2ccccc12 | inactive
25 | CCc1ccc(NC(=O)CCCN2C(=O)C3CC=CCC3C2=O)cc1 (stereo not drawn) | inconclusive: 30.1 µM [inhibitor, single point]

Row | Compound | Potency
26 | Cc1cc(Cl)ccc1OCC(=O)NCCOC(=O)Nc1sc(=S)n(C)c1C | inconclusive: 16.9 µM [inhibitor, partial curve]
27 | C=Cc1ccc(CSc2cc(C)nc3nc(C)nn23)cc1 | inactive
28 | O=c1nc(Nc2cccc(Cl)c2)oc2cc(Cl)oc(=O)c12 | active: 13.5 µM
29 | O=C(/C=C/c1ccccc1Cl)Nc1nc(-c2cccs2)ns1 | inconclusive: 1.35 µM [inhibitor, partial curve, poor fit]
30 | Cc1sc2nc(C(C)Sc3n[nH]c(N)n3)[nH]c(=O)c2c1C (stereo not drawn) | inconclusive: 37.9 µM [inhibitor, partial curve, poor fit]
31 | C=CCOC(=O)c1c(C)nc2cc3c(cc2c1C)OCO3 | active: 16.9 µM
32 | O=C(Cn1cc(SCc2c(F)cccc2Cl)c2ccccc21)N1CCCC1 | active: 16.9 µM
33 | COc1ccc(C(=O)Nc2cccc3nc(C)ccc23)c(OC)c1 | inconclusive: 19 µM [inhibitor, single point]
34 | NNC(=O)c1cc(O)c(O)c(O)c1 | inconclusive: 13.5 µM [inhibitor, partial curve, poor fit]
35 | N/C(=N\OC(=O)c1ccc([N+](=O)[O-])cc1Cl)c1ccccn1 | active: 0.12 µM
36 | CC1=NN(C(N)=S)C(=O)C1N=Nc1c(C)cc(C)cc1C (stereo not drawn) | inconclusive: 9.53 µM [inhibitor, partial curve]
37 | O=C(Oc1ccc2c(c1)OCC2=O)c1ccccc1 | active: 26.9 µM
38 | Cc1ccc(NC(=O)Cn2c(=O)n(Cc3nc(C)no3)c(=O)c3cc4c(cc32)OCO4)cc1 | inactive
39 | CC(C)CNc1cc(=O)n(C)c(=O)n1C | inactive
40 | Cn1cccc1C(=O)C(=O)Nc1ccccc1C(F)(F)F | inconclusive: 21.3 µM [inhibitor, single point]
41 | N#Cc1c(-c2ccco2)cc(-c2ccccn2)nc1N | inconclusive: 26.9 µM [inhibitor, single point]
42 | CCCCN(CC)c1nc(-c2ccccc2F)nc2ccccc12 | inconclusive: 37.9 µM [inhibitor, partial curve, poor fit]
43 | COc1ccc(-n2cc(CNCC3CCOCC3)c(-c3cccc(F)c3)n2)cc1 | inconclusive: 37.9 µM [inhibitor, partial curve, poor fit]
44 | COc1ccc(C(=O)n2c(SC)nc3cc4c(cc32)OCCO4)cc1 | active: 19 µM
45 | Cc1cc(NCc2ccccn2)n2ncc(-c3ccc(Cl)cc3)c2n1 | active: 10.7 µM
46 | CCOC(=O)c1ccc(NCc2cccnc2)cc1 | inconclusive: 23.9 µM [inhibitor, partial curve, poor fit]
47 | Cc1cccc(N2CCn3c2nc2c3c(=O)n(C/C=C/c3ccccc3)c(=O)n2C)c1 | inconclusive: 9.53 µM [inhibitor, partial curve]
48 | CC(C(=O)N1CCN(c2ccc(Cl)cc2)CC1)c1ncc(C(F)(F)F)cc1Cl (stereo not drawn) | inactive
49 | Nc1ccccc1SCc1ccccc1Cl | inconclusive: 23.9 µM [inhibitor, single point]
50 | COc1ccc(-c2cc(C(=O)N3CCN(c4ccccc4)CC3)no2)cc1 | active: 4.78 µM and active: 6.75 µM

Row | Compound | Potency
51 | CC(=O)Nc1ccc(NC(=O)c2c(C)nn(Cc3ccccc3)c2Cl)cc1 | inactive
52 | CC1(c2ccccn2)Nc2ccccc2-c2nc3ccccc3n21 (stereo not drawn) | inconclusive: 19 µM [inhibitor, partial curve]
53 | Cc1ccc(S(=O)(=O)CC#CCOC(=O)c2ccc([N+](=O)[O-])cc2)cc1 | inconclusive: 42.6 µM [inhibitor, partial curve, poor fit]
54 | Cc1ccc(CNS(=O)(=O)c2c(C)[nH]c(C)c2C(=O)N2CCCCC2)o1 | inactive
55 | Cc1cc(/C=C2/SC(=S)N(c3ccc([N+](=O)[O-])cc3)C2=O)c(C)n1-c1cccnc1 | inactive
56 | O=C(NCCc1ccc(Cl)cc1)c1ccc2c(c1)N(Cc1ccc(Cl)cc1)C(=O)CS2 | inactive
57 | COCCCNC(=O)CCn1c(=O)c2ccccc2n(CC(=O)Nc2cc(Cl)ccc2OC)c1=O | inactive
58 | O=[N+]([O-])c1ccc(Sc2cccc3cccnc23)cc1 | inconclusive: 26.9 µM [inhibitor, single point]
59 | Cc1ccc(/C=C2/Sc3ccc(C(=O)N4CCN(C)CC4)cc3NC2=O)cc1 | active: 15.1 µM
60 | COc1cccc(CN2CC(C(=O)NCCCc3ccc(C)cc3)CCC2=O)c1 (stereo not drawn) | inconclusive: 37.9 µM [inhibitor, single point]
61 | COc1cc2ccccc2cc1C(=O)NC(=S)Nc1ccc(C(=O)O)cc1 | inconclusive: 37.9 µM [inhibitor, single point]
62 | O=c1cc(NCCc2ccccc2)c2ccccc2o1 | inconclusive: 19 µM [inhibitor, single point]
63 | CCOC(=O)COc1ccc2ccccc2c1/C=C/[N+](=O)[O-] | inconclusive: 3.38 µM [inhibitor, partial curve, poor fit]
64 | CCOC(=O)CNC(=O)c1sc2nc(C)cc(C)c2c1N | inconclusive: 37.9 µM [inhibitor, partial curve, poor fit]
65 | CC(=O)c1sc(-c2cccc(Cl)c2)nc1C | inconclusive: 26.9 µM [inhibitor, partial curve]
66 | CCS(=O)(=O)C1=NSC2=NC(=O)/C(=C\c3ccc(OC(=O)c4ccco4)c(OC)c3)C(=N)N21 | active: 21.3 µM
67 | O=C(CSc1ncccn1)NCc1cccc(Cl)c1 | inconclusive: 42.6 µM [inhibitor, partial curve, poor fit]
68 | Cc1ccc(-c2cnc3ccccc3n2)cc1C | active: 0.536 µM
69 | COc1ccc(Cl)cc1C(=O)Nc1nnc2n1CCS2 | inactive
70 | NC(=O)c1c(NC(=O)c2cc3ccccc3o2)sc2c1CCC2 | active: 0.426 µM
71 | O=C(Cc1ccccc1[N+](=O)[O-])Nc1ccc2c(c1)OCCO2 | inconclusive: 26.9 µM [inhibitor, single point]
72 | Cc1ccc(S(=O)(=O)c2ccc(Cl)cc2)cc1S(=O)(=O)N1CCN(C)CC1 | inconclusive: 6.01 µM [inhibitor, partial curve, poor fit]
73 | CCOC(=O)N1N=C(c2ccc(OC)cc2)CC1(O)C(F)(F)F (stereo not drawn) | active: 3.38 µM
